From the supplement of paper PMC11417369
This is one part of the list.

tested on: PfSIP2 AP2 domain 1 (GST-tagged); experiment: gcPBM binding intensity (ln(normalized median fluorescence intensity)); higher = stronger DNA binding
Method in brief: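 An Agilent 4 × 180k array carrying primer-extended double-stranded 36-bp intergenic genomic probes and negative controls received GST-tagged P. falciparum DNA-binding domains expressed in E. coli, about 25 μg on average, for 1 h. The binding buffer contained 1× PBS, 1% milk, 0.2 mg/ml BSA, 0.5% salmon testes DNA and 0.03% Triton X-100. Binding intensity is the top Masliner-normalised natural-log median intensity across replicate spots of either probe orientation, read after Alexa488 anti-GST antibody staining and a 488 nm scan.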

Sequence	gcPBM binding intensity (ln)
AAATAAATTAAAATAAATTAAATTAAATTAGCATTA [GTGCAC_negctrl_site531]	6.61
TGTATGTTATGTATATGTACATATCTTTGTATTTAT [XGTACX_site6920]	7.06
TAATATTTATAATAGTGTACACAATTATAAACTGAA [XGTACX_site8426]	7.09
TTTATTTTTTACCAAGTGCAATATATTATAATAATA	7.77
ACCTTATTTATTATTGCATGTGACCATCAGATGGTA [TGCATGCA_site288]	7.6
TATTTATAAGTTTACGCATGCATATAATTATTAATA [TGCATGCA_site311]	6.79
TTTTTTTTTTTTTTTGTGCACAATTATTTCAATTTT [GTGCAC_site9884]	8.88
ATATTTGCATGTGGTAGTACATAACATTCTTTTACA [XGTACX_site8194]	7.37
CTTCAATTAAAATTCACACATATAAATTAAAATATT [CACACA_site6129]	6.85
ACATATTATATATGTGTGCACATATATATATATTTA [GTGCAC_site9591]	8.7
ATATATAATTAATTTTGTACACATAAAAAAAAAAAT [XGTACX_site6647]	7.25
AGAGAGAAAGCTATAACATGCAACAATTTTTTGAAA [TGCATGCA_site514]	6.57
TTTATATATATAATATGTACACATAATAATAATACA [XGTACX_site4862]	7.07
AAATGACATTTCAAAAGTACATATTTAATTAATTAA [XGTACX_site2919]	7.01
TTTATTTAAAAAGTTTGTACATATATATTATTTTGA [XGTACX_site6040]	6.89
AAAAAATATTAGACTTATAAAGCATAAAGGATATTA [GTGCAC_negctrl_site588]	6.67
AATTTATTATTTTATTGTACGTATTTTTTTTTTTAT [XGTACX_site2298]	7.19
CATATATAAATATATACACACATACATACATACATA [CACACA_site5988]	7.29
ATATTATAGTTATGAACATGCAAACATTACGAAATA [TGCATGCA_site54]	7.06
ATAAAAATAAAAAGTGTGCACACAAAAATATATATA [GTGCAC_site9931]	8.78

Sequence	gcPBM binding intensity (ln)
AAAAAGAACAGAAACACACAAATAAAATAAAATTGT [CACACA_site6921]	7.14
AAATGTTAATAAAGGTGTACACAAAATAAAAAAAAT [XGTACX_site463]	7.41
TTAATTGACATAAAAAGTACTCATATAGATATGCAC [XGTACX_site6391]	8.9
TAATTTTATTTTATATGTACGCAATACAAATATATA [XGTACX_site8461]	7.2
CACCCCCACAGACACACACACACACCCATATATATA [CACACA_site364]	7.86
AAGATTCATTGGTTCTGTACAAAATAAACACTATAA [XGTACX_site834]	7.09
TTACCAAAAAAATGTAGTACAATATAATATTATTTA [XGTACX_site5750]	7.44
AATATATATATTTAAGTGCATAATATTGTAATATTA	7.88
ATATATTATGAAGACTGTACATTTACATGAAAAAAA [XGTACX_site7203]	6.93
TTCACCAGTTGGTAAACATGCAATTTTCCATACAAG [TGCATGCA_site267]	6.75
ATATAAATACATAAATGTACTTACCATTTAAATATG [XGTACX_site5254]	7.12
AAAAAAAACGGACACACACACATACCCATACATACA [CACACA_site5574]	7.22
ATTCTTTTAAAATAGGTGCTAAAAATAATATGTTAC	8.29
AAAGAAAGAAGAAATTGTACATAATAAATAAGTAAA [XGTACX_site3311]	6.68
ATATAAACAATATTTTGTACATAATTTTATGAGCAT [XGTACX_site6933]	6.96
GCATATGTTTATTGCACACACCAAAAAGAAAACATA [CACACA_site4384]	7.37
ATTATTTGTTTAATGAGTACGAAGACAAATTTTACC [XGTACX_site5223]	7.4
AAAGGAAAAAAAAGCACACACAATATTACTTGAAAT [CACACA_site2588]	6.64
TATATACACAGACACACACACACATACACGCACATA [CACACA_site6909]	7.2
GTACTATACAAAGATGATAATCAATATATATATATA [XGTACX_negctrl_site264]	9.51

Sequence	gcPBM binding intensity (ln)
TACATTTATATATATACACACACACTAATAAAAAAA [CACACA_site8845]	7.23
TAAATACAGATATATACACACATATATATATTTTAT [CACACA_site5970]	6.99
ATATGTATATATAAGGTGCAGAAAGGTGGGCAAAAG	10
TCATATATTTTAATATGTACACATTTTTTTGGTATA [XGTACX_site8695]	6.81
TACAGACTAAAATACACACACACACGCACATATATA [CACACA_site7875]	7.19
TTTTTCTTTATTAGCACACATAATATTATATATGTG [CACACA_site2629]	7.11
CTTTTGTCATTCTTTTGTACACAGTTTGAAATATGT [XGTACX_site1457]	7.47
AAATAGAGAAATACAAGTACATATCAAACCAATATA [XGTACX_site1192]	6.76
ATAATAAATAAATAATGTACATATGAAAGAATAAAT [XGTACX_site8355]	7.34
ATAAAAAAGAAACAAACACACATACATACAAACAAA [CACACA_site4256]	7.04
TATATATATATATATACACACTATATAATTCAAACA [CACACA_site4712]	9.55
ATGAATAAATTAAAAATGCACACTTTGATGGGTACA [CACACA_site2157]	7.46
AAATTGGGGCTTGTTACACACTTAGTGGGAGTTCTA [CACACA_site4485]	6.9
AAACTTGTAAGAAACACACACACACCCATATATATA [CACACA_site797]	7.52
TTACGATTATACAAAAGTACATGTATTACACAATAT [XGTACX_site5138]	7.1
TATACCAGTTTTAAAAGTACTTGTGCATAAAAAATA [XGTACX_site4794]	7.78
TAATAATAAAAATAAACACACATATATATGTATATA [CACACA_site2853]	7.03
CACTATATAAGAACCTGTACTCAATTTTGCAATATA [XGTACX_site7238]	6.96
